# Screen size: about 52,000 compounds; about 1,700 (3.3%) were called active. Rule as the data show it: active = survival mostly below about 52% (no sharp cut-off); inactive = mostly above about 56%. Some of the results follow.
# Tested on: Wild type
# Assay: S. aureus survival, RN4220 and DeltatarO strains – OD600, teichoic acid synthesis inhibitors, primary screen (AID 463173)
# Conditions: S. aureus RN4220 wild type/DeltatarO growth, OD600, 18 h, hits give low values, screened at 18.75 µg/mL (by protocol)
row,Structure (SMILES),survival
1,CCc1ccc(S(=O)(=O)c2c(C(=O)c3ccc(C)c(C)c3)cnc3ccccc23)cc1,inactive: 96%
2,COc1cccc(N2CCN(c3ccc4nnc(CCC(=O)O)n4n3)CC2)c1,inactive: 72%
3,CC(C)CC(=O)Nc1ccc(S(=O)(=O)NCc2ccco2)cc1,inactive: 76%
4,COc1cccc(Cc2nc3ccccc3nc2SCC(=O)Nc2ccccc2F)c1,inactive: 93%
5,COc1cc2c(cc1OC)C(C)N(C(C)=O)CC2 (stereo not given),inactive: 98%
6,CN(C)c1ccc(CNC(=O)c2ccc(NC(=O)c3nsc4ccccc34)cc2)cc1,inactive: 71%
7,CCS(=O)(=O)N1CCNCC1,inactive: 104%
8,O=C(Cn1c(=O)n(-c2ccccc2)c(=O)c2c3c(sc21)CCCC3)Nc1cccc(F)c1,inactive: 85%
9,Cc1c(C(=O)NCc2ccccc2Cl)cccc1-n1cnc2cccnc21,inactive: 83%
10,Cc1cccc(CNC(=O)c2ccc3nc(-c4ccccc4)c(-c4ccccc4)nc3c2)c1,inactive: 84%
11,CCC12CN3CC(C)(CN(C1)C3c1c(C)n(C)c3ccccc13)C2=O (stereo not given),inactive: 89%
12,CC(C)C1N=C2c3ccccc3N=C(SCC(=O)NCc3ccc(F)cc3)N2C1=O (stereo not given),inactive: 72%
13,Cc1cccc(NC(=O)Cn2c(=O)n(CCc3ccccc3)c(=O)c3sc4ccccc4c32)c1,inactive: 133%
14,CCOC(=O)Cn1c(=O)n(C2CCCCC2)c2nc(-c3ccccc3Cl)nc(C(N)=O)c21,inactive: 66%
15,O=C(Nc1c[nH]c(=O)[nH]c1=O)c1cccc(C(=O)Nc2c[nH]c(=O)[nH]c2=O)c1,inactive: 105%
16,O=C1CC2C(=O)NCCN2C(=NC(=O)c2ccc(Cl)cc2)N1 (stereo not given),inactive: 100%
17,O=C(CSc1nc2c([nH]c3ccccc32)c(=O)n1-c1ccc(F)cc1)N1CCCc2ccccc21,inactive: 73%
18,COc1cc(NC(=O)c2cc(C3CC3)nc3c2c(C)nn3-c2ccc(C)cc2)cc(OC)c1,inactive: 79%
19,Nc1c(-c2nc(-c3ccc(Cl)cc3)no2)nnn1-c1ccc(C(F)(F)F)c(Cl)c1,inactive: 88%
20,Cc1cccc(C)c1OCc1nc2c3cnn(-c4ccccc4Br)c3ncn2n1,inactive: 92%
21,O=C(NC1CCCCC1)c1cc(Nc2ccccc2)nc2ccccc12,inactive: 75%
22,COC(=O)c1ccc(NC(=O)CCNS(=O)(=O)c2cccc3nsnc23)cc1,inactive: 62%
23,CCOC(=O)CC(NC(=O)c1cc2c(=O)n3cccc(C)c3nc2s1)c1ccc(OCC(C)C)c(OC)c1 (stereo not given),inactive: 77%

row,Structure (SMILES),survival
1,COc1ccc(CCN2C(=O)c3[nH]nc(-c4ccccc4O)c3C2c2ccc(O)c(OC)c2)cc1 (stereo not given),inactive: 54%
2,COc1ccc(-c2c(C)nn3c(-c4ccccc4)cc(-c4ccccc4)nc23)cc1OC,inactive: 102%
3,CCC(CC)C(=O)Nc1nnc2n1CCS2,inactive: 132%
4,CCOC(=O)c1cc2occc2n1CC(=O)N1CCCc2ccccc21,inactive: 99%
5,COCC(C)NC(=O)c1ccc2c(c1)OCO2 (stereo not given),inactive: 106%
6,Cc1ccc(C(=O)N2CCC(c3c[nH]c4ccccc34)(c3c[nH]c4ccccc34)CC2)cc1,inactive: 60%
7,Cn1nccc1C(=O)NCc1ccc2c(c1)CCN2C(=O)c1ccc(F)cc1,inactive: 65%
8,COc1cc(Cl)ccc1Nc1ncc(C(=O)N2CCN(c3ccccc3OC)CC2)c2ccccc12,inactive: 77%
9,COc1ccc(OC)c(-c2cc(C(=O)Nc3cccc(Cl)c3C)no2)c1,inactive: 26%
10,COc1ccccc1Nc1cc(C(=O)NCCCN(C)c2ccccc2)c2ccccc2n1,inactive: 89%
11,COc1cccc(CNC(=O)c2ccc(Cn3c(SCc4ccccc4)nc4cccnc43)cc2)c1,inactive: 88%
12,CCC(=O)N1c2ccc(S(=O)(=O)NCc3cccc(OC)c3)cc2CC1C (stereo not given),inactive: 66%
13,Cc1ccc(S(=O)(=O)c2nc(-c3ccco3)oc2SC(C)c2ccccc2)cc1 (stereo not given),inactive: 34%
14,O=C(CSc1nc(-c2ccccc2)nc2c1CCCC2)c1ccc(F)cc1,inactive: 69%
15,Cc1nc2ccccc2n1CC(O)COc1ccc(C(=O)O)cc1 (stereo not given),inactive: 68%
16,Cc1ccc(NC(=O)Cn2cc(C#N)c3ccccc32)cc1,inactive: 113%
17,O=C(CN1CCC(NC(=O)c2ccccc2)CC1)NCc1ccccc1F,inactive: 91%
18,COc1cc(NC(=O)CCc2c(C)nc3nc(-c4cc(OC)cc(OC)c4)nn3c2C)cc(OC)c1,inactive: 93%
19,CCCCN(CC)CCNC(=O)c1cc2c(-c3ccc(Cl)cc3)nn(C)c2s1,active: 5%
20,CC1CCCN(S(=O)(=O)c2ccc(NC(=O)c3nc(SC(C)C)ncc3Cl)cc2)C1 (stereo not given),inactive: 90%
21,CCn1c(C(=O)N2CCC(C(=O)NCCc3ccccc3)CC2)cc2sccc21,inactive: 85%
22,CCC(Sc1nnc(-c2ccc(OC)cc2)c(-c2ccc(OC)cc2)n1)C(=O)NC1CCCCC1 (stereo not given),inactive: 83%
23,OC(COc1cccc2ccccc12)CN1CCOCC1 (stereo not given),inactive: 110%

row,Structure (SMILES),survival
1,Cc1ccc(-n2c3nc(=O)n(C)c(=O)c-3cc3c(Cl)cccc32)c(C)c1,inactive: 83%
2,Cc1ccc(NS(=O)(=O)c2ccc(NC(=O)N3CCCC3)cc2)cc1C,inactive: 83%
3,O=C1c2ccccc2C(=O)N1c1ccc(S(=O)(=O)N2CCOCC2)cc1,inactive: 108%
4,COc1ccccc1/C=C/c1nc(C#N)c(N2CCCCCC2)o1,inactive: 86%
5,O=C(C1CCCO1)N1CCc2ccccc21 (stereo not given),inactive: 125%
6,CCCCN(Cc1ccccc1)C(=O)c1oc(=O)c2ccccc2c1-c1ccc(C)cc1,active: 0%
7,COc1ccc(N2CC(NC(=O)c3ccc(S(=O)(=O)N4CCCC4)cc3)CC2=O)cc1 (stereo not given),inactive: 118%
8,COc1ccc(-n2nc(C(=O)N3CCN(c4ccccc4OC)CC3)c3c4ccccc4n(C)c3c2=O)cc1,inactive: 80%
9,CCOC(=O)c1ccc(NC(=O)C(CC)Sc2nc3ncccc3[nH]2)cc1 (stereo not given),inactive: 71%
10,COc1cccc(N2CC(NC(=O)/C=C\c3ccc4c(c3)OCO4)CC2=O)c1 (stereo not given),inactive: 73%
11,Cc1cc(C)nc(SCC(=O)C(C)(C)C)n1,inactive: 94%
12,Cc1ccc(CNC(=O)c2ccc(CSCc3ccc(Cl)cc3)o2)cc1,inactive: 85%
13,CCc1ccccc1NC(=O)CN1C(=O)CCc2cc(S(=O)(=O)N3CCCCC3)ccc21,inactive: 87%
14,CCCCNS(=O)(=O)c1ccc2nc(NC(=O)c3cccnc3)sc2c1,inactive: 71%
15,O=C(NCc1cccc(F)c1)C1=Cc2cc(Br)ccc2OC1,inactive: 77%
16,Cc1ccc(-n2ccnc(NCc3ccccc3)c2=O)cc1C,inactive: 72%
17,CCOc1ccccc1C(=O)Nc1c(NC)c2ccccc2oc1=O,inactive: 76%
18,CC(C)OC(=O)CC12CN3CC(CC(=O)OC(C)C)(CN(C1)C(=O)c1ccccc1C3=O)C2=O,inactive: 104%
19,O=C(Nc1cc(C(F)(F)F)ccc1Cl)c1cc2nc(-c3ccc4c(c3)OCO4)cc(C(F)(F)F)n2n1,inactive: 74%
20,Cn1c(=O)oc2cc(S(=O)(=O)N3CCCC(C(=O)Nc4ccc(Br)cc4F)C3)ccc21 (stereo not given),inactive: 134%
21,COc1ccc(OCCCn2c(=O)oc3ccc(C)cc32)cc1,active: 2%
22,COc1ccc(N(CC(=O)NCc2ccc(F)cc2)S(=O)(=O)c2c(C)n[nH]c2C)cc1,inactive: 86%
23,CCOC(=O)c1cc2c(ccn2-c2ccc(F)cc2)n1CC(=O)NC1CCCCC1,inactive: 112%

row,Structure (SMILES),survival
1,O=C(CSc1nc2c(oc3ccccc32)c(=O)n1Cc1ccco1)Nc1cccc(Cl)c1,inactive: 52%
2,Cc1cn(C)c(CC(=O)Nc2cccc(Cl)c2C)c1C(=O)O,inactive: 124%
3,Cc1cc(C)cc(NC(=O)CN2C(=O)c3ccccc3Sc3ccc(C(=O)N4CCOCC4)cc32)c1,inactive: 69%
4,COc1cc2c(cc1NS(=O)(=O)c1cccc(C#N)c1)n(C)c(=O)n2C,inactive: 76%
5,Cc1ccc(C)c(Cn2nnc(C(=O)NCc3ccc(Cl)cc3Cl)c2N)c1,inactive: 80%
6,CCc1ccc(NC(=O)c2ccc(F)c(S(=O)(=O)N3CCC(C)CC3)c2)cc1,inactive: 119%
7,Cc1cccc(C(=O)NCCc2sc(-c3ccccc3)nc2C)c1,inactive: 71%
8,CCOC(=O)c1sc2ccccc2c1S(=O)(=O)Nc1cccc(C(F)(F)F)c1,inactive: 45%
9,C=CCc1cccc2cc(C(=O)Nc3cccc(Cl)c3)c(=O)oc12,inactive: 76%
10,Cc1coc2c1c(C)cc1oc(=O)cc(C)c12,inactive: 88%
11,COc1ccc(CNn2cnnc2)c(O)c1,inactive: 100%
12,Cc1oc(-c2cccc(Cl)c2)nc1CN1CCCC(C(=O)NCc2ccc(F)cc2)C1 (stereo not given),inactive: 64%
13,CCCCN(C)C(=O)C(Cc1ccccc1)NS(=O)(=O)c1ccc2c(c1)c(=O)n(C)c(=O)n2C (stereo not given),inactive: 127%
14,COc1ccc(-c2nnc(SCC(=O)Oc3c(C)cccc3C)o2)cc1OC,inactive: 117%
15,CC(C)OCCCNC(=O)c1ccc2c(=O)n(CCc3ccccc3)c(=O)[nH]c2c1,inactive: 93%
16,CN(C)C(=O)Cn1nc(-c2ccccc2)c2ccccc2c1=O,inactive: 98%
17,CCC(C)NC(=O)c1ccc(-n2c(-c3ccccc3)cc3c2CCCC3)cc1 (stereo not given),inactive: 112%
18,COC(=O)c1cc(NC(=O)Cn2nc(C)n3cccc3c2=O)cc(C(=O)OC)c1,inactive: 91%
19,CCOC(=O)C1=C(CS(=O)(=O)c2ccc(Br)cc2)NC(=O)NC1c1ccccc1 (stereo not given),inactive: 85%
20,Cc1ccccc1CNC(=O)c1ccc(-c2nc(CS(=O)(=O)c3ccccc3)c(C)o2)cc1,inactive: 75%
21,CCc1cccc(C)c1NC(=O)c1cc(C)nc2c1c(C)nn2-c1cccc(Cl)c1C,inactive: 78%

# Source: PubChem BioAssay AID463173 (ICCB-Longwood Screening Facility, Harvard Medical School, 2010)
